From the supplement of paper PMC3334620
Over roughly 33,000 sequences, “E-score (-0.5 to 0.5)” has its median near -0.013; the highest 2% begin near 0.3. This is one part of the list.

molecular target: T1, Msn1 (UniProt P22148); test: PBM E-score (8-mer binding enrichment) (E-score (-0.5 to 0.5)); higher = stronger / more preferred TF binding; most listed sequences are background and not binding sites; conditions: protein concentration: 200 nM; construct: GST-full length
T1 sequence: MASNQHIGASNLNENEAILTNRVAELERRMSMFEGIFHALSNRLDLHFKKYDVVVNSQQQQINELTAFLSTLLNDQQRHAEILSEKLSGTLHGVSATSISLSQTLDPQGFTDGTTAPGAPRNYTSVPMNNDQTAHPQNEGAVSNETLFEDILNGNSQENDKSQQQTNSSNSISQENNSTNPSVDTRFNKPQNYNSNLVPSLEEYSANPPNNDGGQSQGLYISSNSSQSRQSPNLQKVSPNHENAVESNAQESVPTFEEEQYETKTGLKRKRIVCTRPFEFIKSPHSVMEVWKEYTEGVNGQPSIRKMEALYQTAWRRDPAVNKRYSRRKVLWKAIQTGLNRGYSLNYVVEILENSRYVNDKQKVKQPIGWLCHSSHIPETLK
Protocol: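 Universal 'all 10-mer' protein binding microarrays (Agilent AMADID 015681) probed with GST-tagged S. cerevisiae TFs (full-length or DBD) made by in vitro transcription/translation (PURExpress), about 100-200 nM. Bound TF was detected with fluorescent anti-GST. Each ungapped 8-mer (which stands for itself and its reverse complement) is scored by the PBM enrichment score (E-score), a modified Wilcoxon-Mann-Whitney statistic from -0.5 to +0.5, computed with the Universal PBM Analysis Suite. Scale: above 0.35 generally sequence-specific binding.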

Sequence | PBM E-score
GATTGGCC | -0.138
GCCCCCCA | -0.401
ATGCTGCA | -0.161
ACTTTTCT | 0.131
AAGACTCA | -0.112
AGTTGCAA | 0.122
ACGCACTC | -0.0737
AGTAGCAT | -0.157
AAACTTGA | -0.0134
ACCGGCGT | 0.0322
ATGAATGC | -0.0205
TCGCTACA | -0.254
CTCATAAC | -0.131
ATGACAAT | 0.365
GAATGCTC | -0.075
CGCCTCTC | -0.345
CAGGCTGA | -0.204
CCACCAAC | -0.0306
TAAAGACA | 0.356
ATCACAGG | -0.137
ACATGAAC | 0.173
TGCTCCAA | 0.0599
ACGAGCTG | 0.0278
CCATAGGC | -0.0414
CAAGCGCA | 0.185

Sequence | PBM E-score
CTTCTGAC | -0.103
ATACGTAG | -0.0938
GTTCTGCA | -0.00536
GAGCATAA | 0.00338
AAATTTAA | 0.238
AATTTCTG | 0.164
ACTCAGCC | -0.215
CCGTGCTA | -0.28
TCTCGTAA | 0.0717
GTATTCAC | 0.218
AAACGTAC | 0.0217
ATGCTACG | 0.13
CCCAGTCG | -0.238
CGAAGACC | -0.0801
CTTTGAGC | -0.112
CTCTTAAG | 0.0891
AGTCGCCA | -0.259
ATCCCCGG | -0.289
CATCGTCG | -0.161
ACTGCACA | -0.0484
ATGCCCAT | -0.138
GGGAAGAA | -0.27
ATAGGTCG | -0.0322
ACACAAGG | 0.0619
ATCCTGCG | -0.0743

Sequence | PBM E-score
CATTATTC | 0.0351
TCCTTCCA | -0.117
CTCACCGC | -0.159
GCACCCGC | -0.163
CGAATCGC | -0.211
AGGGTGAT | -0.1
AGTTAATA | 0.221
AGACAGCT | -0.125
CACGAATG | 0.104
CTTGAGAC | 0.0475
CATGACCG | -0.0675
AGACCTCT | -0.182
ACGCCTTC | -0.0871
ATAGGTAA | -0.0187
CGCAAAAC | 0.0323
ACTGCACT | 0.0708
ATTGCAGG | -0.0367
TTTACAAA | 0.12
ATTGAAAT | 0.126
AGATGGTG | -0.161
TATGTAAA | 0.0978
ATCATCAG | -0.0733
CCGGCGCG | -0.123
CGGTTGGA | -0.111
AACAAGCA | 0.0339

Sequence | PBM E-score
CCGCTTCG | -0.115
AGTATCAA | 0.217
CAACGCGA | 0.154
ACGGACGC | -0.049
GAACGAGA | 0.202
GTTGGCCA | -0.219
ACCGCGCA | -0.0548
CCACTACG | 0.0309
GGTGGGCA | -0.0817
AAACGTCA | -0.057
ATTCGGTC | -0.0603
GAGACAGA | 0.0976
CAGGGAGG | -0.355
CCACGACA | 0.179
CTGTTATC | -0.0672
ACGCTGGA | -0.09
TAGTTGCA | 0.0158
GATATTTA | 0.125
CGTCAACC | -0.192
GCGGGTGA | -0.0547
GTTTTAAA | 0.244
CAGAAGCG | 0.00178
CGTGCGGC | -0.106
ACCGTAGC | -0.243
GTGTCCAA | 0.389

Sequence | PBM E-score
GTAATTAC | 0.133
ACCTCATG | -0.244
GCCGCAGC | -0.256
GGAGAATA | 0.0546
CCTCCACG | -0.13
ATTTGCGA | 0.0711
CGGGTAGA | -0.146
AAGGGGAG | -0.222
CATCACCA | 0.0596
ACCTTTTC | 0.0396
TCTAAAAA | 0.136
CTGCAGTA | -0.128
GTTTGACA | 0.0659
TGAAAGAA | 0.229
CCCGCCGC | -0.159
ACGCACGT | -0.00608
ACGATAGA | -0.084
AGATCCGG | -0.022
CCATGTTC | 0.0339
AAAAGAAT | 0.245
GACGCGAA | 0.0618
CGCGTACC | -0.138
TACGACAA | 0.352
ATCGCGGA | 0.03
GTGCGAAC | -0.203

Sequence | PBM E-score
AGCCTTTA | -0.0302
CTACAGTC | -0.0295
ACCACTCC | -0.0353
AGAAGATG | -0.132
ACAGGTAT | 0.0494
ACATAACG | 0.243
CCCCGTGC | -0.262
CCTTTATA | -0.142
AGAATGTA | 0.167
CCCGAACA | 0.181
GGTTGCAA | -0.0202
AACTGCTT | -0.0806
CGGAAATA | 0.2
ATTGGTTA | 0.00682
AATAGCCC | -0.212
ACGCCGCG | -0.0148
TACGCGGA | -0.106
AAGTACCT | 0.0694
CGAAATTC | -0.0495
ACGATCAC | -0.107
ATGCTGGC | -0.104
CGTCCCGA | 0.0488
CCCTAGAA | -0.0965
CAGAACGG | 0.0739
ACACGTAT | 0.125

Sequence | PBM E-score
AACCACCC | -0.0597
ACTGATCC | -0.00633
GACTATAA | 0.0514
CAATTACG | 0.00041
AATCACAG | 0.00145
CTGAAACC | 0.0588
AAACAAAT | 0.199
GCAAAACC | -0.153
CTACCGAC | 0.00655
AAAACGGT | 0.00929
GCCCAGCC | -0.164
ATTTTGAC | 0.248
GCCTCGAC | -0.148
ACGTAAGG | -0.0593
AGTGGGAG | -0.127
AGTGTCGC | 0.0675
ATAGATAT | 0.0389
ACAACCTG | 0.0989
ATACACCA | 0.0163
AGATCTAG | -0.119
AGCATACT | -0.0227
ATTTGATA | 0.11
